Measurements as given in PubChem BioAssay AID1508624 (National Center for Advancing Translational Sciences (NCATS), 2021).
About 120 (0.25%) of roughly 48,000 compounds were called active. About 4% were inconclusive and are not listed. The call rests on the fitted dose curve; in most records, active means well fitted activation curve with a large enough effect; inconclusive means small, poorly fitted or top-dose-only effect, or another doubt; inactive means no such curve, though single readings can be large or run the other way. The list shows a part of the results.

Assay: Primary qHTS for Identification of Small Molecule Activators of Huntingtin-Antisense Promoter Activity; further: nearly all actives have a fitted effect of over 55% in size
Settings: HEK293 HTT-AS promoter firefly luciferase reporter, 24 h; series mostly up to 57.5 µM; activity change, positive = activation: at the top concentration
In short: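 Firefly luciferase signal from promoter-reporter HEK293 cells was scaled between vehicle (0%) and zero RLU (-100%). Compounds were tested at final concentrations of up to 57.5 uM over 24 h at 37 degrees C. PTC124 at 50 uM final served as control inhibitor.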

Activity change, positive = activation, inactive:
CN(CC(=O)Nc1cccc(C(F)(F)F)c1)S(=O)(=O)c1ccc2[nH]c3c(c2c1)CCCC3 -28%
COc1ccc(NC(=O)c2cc3c(=O)[nH]c4ccccc4c3n2C)cc1Cl -6.36%
CCCN(C(=O)CCc1nc(-c2ccccc2F)no1)c1ccc(CC)cc1 -15.3%
COc1ccc(CC(=O)NCc2nc3cccnc3n2Cc2ccc(F)cc2)cc1OC -10.7%
Cc1ccccc1NC(=O)c1sc2nc3c(cc2c1N)CCCC3 14.4%
Cc1ccc(C)c(N2CCN(C(=O)c3ccc(CS(=O)(=O)c4ccc(Br)cc4)o3)CC2)c1 -35%
CCOc1cc2[nH]c(=O)n(Cc3ccc(C(=O)NCCN(CC)CC)cc3)c(=O)c2cc1OCC -4.73%
CCN(C(=O)c1oc2ccc(S(=O)(=O)N3CCCCCC3)cc2c1C)c1ccccc1 -8.87%
CCOC(=O)c1cccc(NC(=O)CN2C(=O)CC(C)(C)Sc3ccccc32)c1 -12.5%
CCOC(=O)c1cc(S(=O)(=O)N2CCN(c3ccc(OC)cc3)CC2)[nH]n1 -9.32%
Cc1cccc(C)c1OCc1nc2c3cnn(-c4cccc(F)c4)c3ncn2n1 -0.652%
Cc1ccc(-n2ncc(C(=O)NCCN3CCc4ccccc4C3)c2C2CCN(C(=O)OC(C)(C)C)CC2)cc1 -32.3%
COc1ccc(CCNC(=O)CCCn2c(=O)c3ccccc3n(Cc3ccccc3C)c2=O)cc1OC -13.5%
Cc1ccc(Nc2c(-c3ccc(N4CCOCC4)cc3)nc3ncccn23)cc1 -6.35%
Cc1ccc(C(=O)Nc2c(C(=O)NCc3ccc(Cl)cc3)sc3nc(C)cc(C)c23)cc1 -22.6%
CCOc1ccc(NC(=O)Cn2c(=O)n(CCc3ccccc3)c(=O)c3c4c(sc32)CN(C(C)=O)CC4)cc1 -21.8%
CCc1ccc(NC(=O)CSC2=Nc3ccccc3C3=NC(CCC(=O)NCc4ccccc4OC)C(=O)N23)cc1 (centres undefined) 0.351%
CCOCCCNC(=O)c1cnc2sc(N3CCCCCC3)nn2c1=O -4.3%
Cc1ccc(CC(=O)N(Cc2nc(-c3ccc(C)cc3)no2)C(C)C)cc1 -27.6%
O=C(CCc1nc(-c2ccccc2F)no1)Nc1cccc(C(F)(F)F)c1 -30.4%
Cc1nn(-c2ccccc2)c(OC(=O)c2ccc(Br)cc2)c1S(=O)(=O)c1ccccc1 -20.4%
CCOc1ccc(OCC)c(NC(=O)c2cc(C)nc3c2c(C)nn3-c2cccc(Cl)c2C)c1 -6.62%
Cn1c(=O)c2sccc2n2c(CCCC(=O)Nc3ccc(F)cc3F)nnc12 -11.9%
COCCCNc1ncnc2c1c(-c1ccccc1)cn2-c1ccc(C)c(Cl)c1 -6.93%
CCn1c(CN2CCN(c3cccc(Cl)c3)CC2)nc2c1c(=O)[nH]c(=O)n2C -33.6%
O=C(COc1ccc(Cl)cc1)Nc1cc(-c2ccccc2)no1 16.3%
C[C@@H]1C[C@H]2[C@@H]3CCC4=CC(=O)C=C[C@]4(C)[C@@]3(F)[C@@H](O)C[C@]2(C)[C@@]1(O)C(=O)CO 3.12%
OC1(c2ccc(Cl)c(C(F)(F)F)c2)CCN(CCCC(c2ccc(F)cc2)c2ccc(F)cc2)CC1 -91.5%
COc1ccc(OC)c(NC(=O)CN2C(=O)CC(c3ccco3)Sc3ccccc32)c1 (centres undefined) -32.7%
COc1ccc2c(c1)c1c(c(=O)n(-c3ccccc3C)c(=O)n1Cc1ccccc1C)n2C -5.81%
CCCCNc1sc(S(=O)(=O)CC)nc1S(=O)(=O)c1ccc(C)cc1 -19.9%
CNS(=O)(=O)c1cn(CC(=O)Nc2ccc(F)cc2F)cc1S(=O)(=O)NC -13.2%
Cc1ccc(N2CC(c3nnc(Cc4ccc(Cl)cc4)o3)CC2=O)cc1 (centres undefined) -24.9%
CC(=O)Nc1cc(C(=O)NCc2ccccc2)ccc1Sc1ccc(C)cc1 -19.5%
Cc1cccc(N2CCN(C(=O)Cn3c(=O)c4cccn4c4ccc(F)cc43)CC2C)c1 (centres undefined) -26.4%
Cc1ccc(CNC(=O)C(C(C)C)N2Cc3ccccc3C2=O)cc1 (centres undefined) -25.8%
Cc1cccc(C(=O)Nc2ccc(-c3nc4ccccc4s3)c(C)c2)c1 18.8%
CO[C@H]1C[C@@H]2CC[C@@H](C)[C@@](O)(O2)C(=O)C(=O)N2CCCC[C@@H]2C(=O)O[C@H]([C@H](C)C[C@@H]2CC[C@H](OC(=O)C(C)(CO)CO)[C@H](OC)C2)CC(=O)[C@H](C)C=C(C)[C@@H](O)[C@@H](OC)C(=O)[C@H](C)C[C@H](C)C=CC=CC=C1C -21.4%
CCN(c1ccc(OC)cc1)S(=O)(=O)c1c(C(=O)N2CCCCCC2)c(C)n(C)c1C -4.19%
COc1ccc(N2CCN(CC(O)COc3ccccc3C(C)(C)C)CC2)cc1 (centres undefined) 0.371% [at 11.5 µM, percent change from vehicle, -100% = no light]
O=C(NC1CCCCC1)c1ccc(Cn2c(SCc3cccc(F)c3)nc3cccnc32)cc1 -25.7%
CN(C(=O)CSc1cn(CC(=O)N2CCCCCC2)c2ccccc12)c1ccccc1 -24.9%
NC(=NCCCCCCN=C(N)N=C(N)Nc1ccc(Cl)cc1)N=C(N)Nc1ccc(Cl)cc1 -8.49%
COc1ccccc1CNC(=O)c1cn(C)c2ccc(S(=O)(=O)N3CCC(C)CC3)cc2c1=O 10.4% [at 11.5 µM, percent change from vehicle, -100% = no light]
Cc1c(F)cccc1NC(=O)C1CCCN1S(=O)(=O)c1ccc(F)cc1 (centres undefined) -13.6%
Cc1ccc(NC(=O)C2CCCN(S(=O)(=O)c3cccc4cccnc34)C2)cc1Cl (centres undefined) -22.4%
Cc1ccc(C(=O)Nc2cccc(C(=O)OCc3cc(=O)n4c5c(sc4n3)CCCC5)c2)cc1 -31.3%
COc1cc(OC)c(NC(=O)c2ccc3nc(C(C)C)oc3c2)cc1Cl -73.1%
Cc1ccc2[nH]cc(C(c3ccccc3)c3cccs3)c2c1 (centres undefined) -36.8%
O=C(c1ccc2c(c1)OCO2)c1cn(Cc2ccc(F)cc2)c2ccccc2c1=O -25.2%
Cn1nc(C(=O)N2CCN(c3ccccc3)CC2)c2c1-c1ccccc1SC2 -9.95%
CCCCN(CC)C(=O)Cn1c(=O)n(-c2ccc(OCC)cc2)c(=O)c2c3c(sc21)CCC3 -27.7%
CC(=O)c1cccc(-n2c(=O)c3c4c(sc3n(Cc3ccccc3Cl)c2=O)CN(C(C)=O)CC4)c1 -4.36%
CCCOC(=O)c1c(NC(=O)c2nc3ncccn3n2)sc(C(=O)OCC)c1C 13.8%
